pIC50: −log10 of the molar value. By IC50 is meant the dose at which the fit gives 50% viability; a limit (>, <) means that the fit lies beyond the doses tested. For AUC the same curve is integrated over the 256-fold range of doses and scaled to a fraction; the more sensitive the line, the further below 1.
Each cell line was assayed with COc1ccc(C2=N[C@@H](c3ccc(Cl)cc3)[C@@H](c3ccc(Cl)cc3)N2C(=O)N2CCNC(=O)C2)c(OC(C)C)c1 [Nutlin-3a] (assay: Viability of human cancer cell lines after 72 h of drug (GDSC screen)).
Experimental: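 Human cancer cell lines in 384-well plates, medium with 10% serum, drug for 72 h over a 256-fold dose range (nine 2-fold or five 4-fold steps up to the top dose). Adherent lines were fixed and stained with the nucleic acid dye Syto60, suspension lines read with resazurin; signal relative to control wells, capped at 0 and 100%. One two-parameter sigmoid per drug and line, fitted in a mixed model over all curves with the slope shared within a line.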
Work on “Capan-2 (pancreas, adherent, top dose 8 µM)” yielded an AUC of 0.983 and a pIC50 of less than 5.10.
For “ChaGo-K-1 (non-small cell lung carcinoma, adherent, top dose 8 µM)”, the AUC was 0.936 and the pIC50 was less than 5.10.
In the case of “D-247MG (glioma, adherent, top dose 8 µM)”, the AUC was 0.767 and the pIC50 was 5.39.
“D-263MG (glioma, adherent, top dose 8 µM)” gave an AUC of 0.957 and a pIC50 of less than 5.10.
Cell Line “D-283MED (medulloblastoma, adherent, top dose 8 µM)” has an AUC of 0.781 and a pIC50 of 5.52.
For “D-336MG (glioma, adherent, top dose 4 µM)”, the AUC was 0.979 and the pIC50 was less than 5.40.
“D-392MG (glioma, adherent, top dose 8 µM)” showed an AUC of 0.842 and a pIC50 of less than 5.10.
Cell Line “D-423MG (glioma, adherent, top dose 8 µM)” has an AUC of 0.97 and a pIC50 of less than 5.10.
In the case of “D-502MG (glioma, adherent, top dose 8 µM)”, the AUC was 0.735 and the pIC50 was 5.46.
“D-542MG (glioma, adherent, top dose 8 µM)” gave an AUC of 0.982 and a pIC50 of less than 5.10.
“D-566MG (glioma, adherent, top dose 8 µM)” gave an AUC of 0.97 and a pIC50 of less than 5.10.
“DAN-G (pancreas, adherent, top dose 8 µM)” gave an AUC of 0.991 and a pIC50 of less than 5.10.
“DB (B-cell lymphoma, suspension, top dose 8 µM)” showed an AUC of 0.898 and a pIC50 of less than 5.10.
Cell Line “DBTRG-05MG (glioma, adherent, top dose 8 µM)” has an AUC of 0.735 and a pIC50 of 5.58.
Cell Line “DEL (lymphoid neoplasm, suspension, top dose 8 µM)” has an AUC of 0.994 and a pIC50 of less than 5.10.
“DG-75 (Burkitt lymphoma, suspension, top dose 8 µM)” showed an AUC of 0.945 and a pIC50 of less than 5.10.
Work on “DIFI (large intestine, adherent, top dose 8 µM)” yielded an AUC of 0.981 and a pIC50 of less than 5.10.
Cell Line DJM-1 (skin, adherent, top dose 8 µM) has an AUC of 0.982 and a pIC50 of less than 5.10.
DK-MG (glioma, adherent, top dose 8 µM) showed an AUC of 0.754 and a pIC50 of 5.40.
With “DMS-79 (small cell lung carcinoma, suspension, top dose 8 µM)” the AUC was 0.978 and the pIC50 was less than 5.10.
For “DMS-114 (small cell lung carcinoma, adherent, top dose 8 µM)”, the AUC was 0.985 and the pIC50 was less than 5.10.
Cell Line “DMS-273 (small cell lung carcinoma, adherent, top dose 8 µM)” has an AUC of 0.977 and a pIC50 of less than 5.10.
“DND-41 (T-cell leukaemia, suspension, top dose 8 µM)” showed an AUC of 0.99 and a pIC50 of less than 5.10.
“DOHH-2 (B-cell lymphoma, suspension, top dose 8 µM)” gave an AUC of 0.766 and a pIC50 of 5.54.
With “DOK (head and neck, adherent, top dose 8 µM)” the AUC was 0.894 and the pIC50 was less than 5.10.
In the case of DOV13 (ovary, adherent, top dose 8 µM), the AUC was 0.862 and the pIC50 was less than 5.10.
DSH1 (bladder, adherent, top dose 8 µM) gave an AUC of 0.984 and a pIC50 of less than 5.10.
“DU-145 (prostate, adherent, top dose 4 µM)” was tested, and the AUC was 0.984 and the pIC50 was less than 5.40.
Cell Line “DU-4475 (breast, suspension, top dose 8 µM)” has an AUC of 0.88 and a pIC50 of 5.24.
With “Daudi (Burkitt lymphoma, suspension, top dose 8 µM)” the AUC was 0.938 and the pIC50 was less than 5.10.
In the case of “Detroit562 (head and neck, adherent, top dose 8 µM)”, the AUC was 0.988 and the pIC50 was less than 5.10.
Cell Line “DoTc2-4510 (cervix, adherent, top dose 8 µM)” has an AUC of 0.982 and a pIC50 of less than 5.10.
Work on “EB2 (Burkitt lymphoma, suspension, top dose 8 µM)” yielded an AUC of 0.99 and a pIC50 of less than 5.10.
With “EB-3 (Burkitt lymphoma, suspension, top dose 8 µM)” the AUC was 0.982 and the pIC50 was less than 5.10.
